Measurements taken from publication PMC3201922.
These are yes or no findings as the source states them, for the method shown. In cells and extracts the contact can be indirect. Some entries that bind do so weakly or less than the wild type. Where a sequence is shown, tags or fusion partners need not be part of it.

Amino acid sequences for entries named in this document (tags omitted).
UniProt Q92466: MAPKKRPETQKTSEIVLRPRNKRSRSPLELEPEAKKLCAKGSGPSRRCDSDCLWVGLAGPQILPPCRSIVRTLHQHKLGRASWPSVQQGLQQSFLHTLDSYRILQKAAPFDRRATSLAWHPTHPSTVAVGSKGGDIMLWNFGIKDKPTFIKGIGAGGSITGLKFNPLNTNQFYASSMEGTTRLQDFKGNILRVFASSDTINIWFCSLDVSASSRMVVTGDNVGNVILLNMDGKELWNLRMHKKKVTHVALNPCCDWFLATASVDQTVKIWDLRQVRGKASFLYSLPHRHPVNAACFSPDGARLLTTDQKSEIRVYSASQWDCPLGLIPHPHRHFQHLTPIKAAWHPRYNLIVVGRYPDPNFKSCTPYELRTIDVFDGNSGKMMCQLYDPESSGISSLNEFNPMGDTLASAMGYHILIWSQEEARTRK

Biological target: DDB2_(1–427)-FLAG (human) (UniProt Q92466)
Experiment: co-IP; lysates of doubly transfected HEK293T cells probed with anti-FLAG affinity beads; immunoprecipitates analysed by Western blotting with anti-FLAG and anti-GFP antibodies

Binder | binding
XPC_(520–633)-GFP (domain or fragment, UniProt Q01831 520-633) AEKRSIAGIDQWLEVFCEQEEKWVCVDCVHGVVGQPLTCYKYATKPMTYVVGIDSDGWVRDVTQRYDPVWMTVTRKCRVDAEWWAETLRPYQSPFMDREKKEDLEFQAKHMDQP | binds
XPC_(607–831)-GFP (domain or fragment, UniProt Q01831 607-831) LRPYQSPFMDREKKEDLEFQAKHMDQPLPTAIGLYKNHPLYALKRHLLKYEAIYPETAAILGYCRGEAVYSRDCVHTLHSRDTWLKKARVVRLGEVPYKMVKGFSNRARKARLAEPQLREENDLGLFGYWQTEEYQPPVAVDGKVPRNEFGNVYLFLPSMMPIGCVQLNLPNLHRVARKLDIDCVQAITGFDFHGGYSHPVTDGYIVCEEFKDVLLTAWENEQAV | binds
